Measured values taken from EPA's CvTdb concentration-time database.
Further values from the same series stand in other lists.

Experiments:
[1] = system: Rat; assay: concentration in brain after dosing; conditions: 0.25 h; dosed: 2-Methyltetrahydrofuran; 10 mg/kg; iv; Female; F344
[2] = system: Rat; assay: concentration in brain after dosing; conditions: 10 min; dosed: 2-Methyltetrahydrofuran; 400 mg/kg; oral; Female; Harlan Sprague Dawley
[3] = system: Rat; assay: concentration in brain after dosing; conditions: 5 min; dosed: 2-Methyltetrahydrofuran; 10 mg/kg; iv; Female; F344
[4] = system: Rat; assay: concentration in brain after dosing; conditions: 2.5 h; dosed: 2-Methyltetrahydrofuran; 10 mg/kg; oral; Female; F344
[5] = system: Rat; assay: concentration in brain after dosing; conditions: 0.5 h; dosed: 2-Methyltetrahydrofuran; 10 mg/kg; iv; Male; F344
[6] = system: Rat; assay: concentration in brain after dosing; conditions: 1 h; dosed: 2-Methyltetrahydrofuran; 10 mg/kg; iv; Male; F344
[7] = system: Rat; assay: concentration in brain after dosing; conditions: 0.5 h; dosed: 2-Methyltetrahydrofuran; 10 mg/kg; iv; Male; F344; remark: listed apart in the source
[8] = system: Rat; assay: concentration in brain after dosing; conditions: 4 h; dosed: 2-Methyltetrahydrofuran; 100 mg/kg; oral; Female; Harlan Sprague Dawley
[9] = system: Rat; assay: concentration in plasma after dosing; conditions: 1.5 h; dosed: 2-Methyltetrahydrofuran; 100 mg/kg; oral; Female; Harlan Sprague Dawley
[10] = system: Rat; assay: concentration in plasma after dosing; conditions: 1.5 h; dosed: 2-Methyltetrahydrofuran; 10 mg/kg; oral; Male; F344
[11] = system: Rat; assay: concentration in plasma after dosing; conditions: 4 min; dosed: 2-Methyltetrahydrofuran; 30 mg/kg; oral; Male; F344
[12] = system: Rat; assay: concentration in plasma after dosing; conditions: 10 min; dosed: 2-Methyltetrahydrofuran; 10 mg/kg; iv; Female; F344
[13] = system: Rat; assay: concentration in plasma after dosing; conditions: 4 h; dosed: 2-Methyltetrahydrofuran; 100 mg/kg; oral; Female; Harlan Sprague Dawley
[14] = system: Rat; assay: concentration in plasma after dosing; conditions: 20 min; dosed: 2-Methyltetrahydrofuran; 10 mg/kg; iv; Female; F344
[15] = system: Rat; assay: concentration in plasma after dosing; conditions: 2 h; dosed: 2-Methyltetrahydrofuran; 30 mg/kg; oral; Male; F344
[16] = system: Rat; assay: concentration in plasma after dosing; conditions: 10 min; dosed: 2-Methyltetrahydrofuran; 30 mg/kg; oral; Female; F344
[17] = system: Rat; assay: concentration in plasma after dosing; conditions: dosed: Bromochloroacetic acid, 80 mg/kg, iv, Female, Harlan Sprague-Dawley
[18] = system: Rat; assay: concentration in plasma after dosing; conditions: 0.75 h; dosed: Bromochloroacetic acid; 100 mg/kg; oral; Male; F344
[19] = system: Rat; assay: concentration in plasma after dosing; conditions: dosed: Bromochloroacetic acid, 100 mg/kg, oral, Female, F344
[20] = system: Rat; assay: concentration in plasma after dosing; conditions: dosed: Fluorotelomer alcohol 8+2, 160 mg/kg, oral, Female, Harlan Sprague Dawley
[21] = system: Rat; assay: concentration in plasma after dosing; conditions: dosed: Fluorotelomer alcohol 8+2, 80 mg/kg, oral, Female, Harlan Sprague Dawley
[22] = system: Rat; assay: concentration in plasma after dosing; conditions: 48 h; dosed: Fluorotelomer alcohol 8+2; 160 mg/kg; oral; Female; Harlan Sprague Dawley
[23] = system: Rat; assay: concentration in plasma after dosing; conditions: dosed: Fluorotelomer alcohol 8+2, 48 mg/kg, oral, Male, Harlan Sprague Dawley
[24] = system: Rat; assay: concentration in plasma after dosing; conditions: dosed: Fluorotelomer alcohol 8+2, 40 mg/kg, oral, Female, Harlan Sprague Dawley
[25] = system: Rat; assay: concentration in plasma after dosing; conditions: dosed: Formamide, 600 mg/kg, oral, Female, Harlan Sprague Dawley
[26] = system: Rat; assay: concentration in plasma after dosing; conditions: dosed: Formamide, 300 mg/kg, oral, Female, Harlan Sprague Dawley
[27] = system: Rat; assay: concentration in plasma after dosing; conditions: dosed: Formamide, 30 mg/kg, iv, Female, F344
[28] = system: Rat; assay: concentration in plasma after dosing; conditions: dosed: Formamide, 90 mg/kg, iv, Male, Harlan Sprague Dawley
[29] = system: Rat; assay: concentration in plasma after dosing; conditions: dosed: Formamide, 300 mg/kg, oral, Female, F344
[30] = system: Rat; assay: concentration in plasma after dosing; conditions: dosed: Formamide, 600 mg/kg, oral, Male, Harlan Sprague Dawley
[31] = system: Rat; assay: concentration in plasma after dosing; conditions: dosed: Formamide, 90 mg/kg, iv, Male, Harlan Sprague Dawley; remark: listed apart in the source
[32] = system: Rat; assay: concentration in plasma after dosing; conditions: dosed: Pyridine, 25 mg/kg, oral, Female, F344
[33] = system: Rat; assay: concentration in plasma after dosing; conditions: 2 h; dosed: Pyridine; 10 mg/kg; oral; Male; F344
[34] = system: Rat; assay: concentration in plasma after dosing; conditions: dosed: Pyridine, 25 mg/kg, oral, Female, F344; remark: listed apart in the source
[35] = system: Rat; assay: concentration in plasma after dosing; conditions: dosed: Pyridine, 5 mg/kg, iv, Male, F344
[36] = system: Rat; assay: concentration in plasma after dosing; conditions: 50 min; dosed: Pyridine; 10 mg/kg; iv; Male; Harlan Sprague Dawley
[37] = system: Rat; assay: concentration in plasma after dosing; conditions: dosed: Pyridine, 5 mg/kg, iv, Female, F344

CC1CCCO1 (centres undefined) [2-Methyltetrahydrofuran]
Conditions | concentration in brain [µg/g] | concentration in plasma [µg/mL]
[1] | 4.45 | –
[2] | 135 | –
[3] | 7.15 | –
[4] | 0.0238 | –
[5] | 2.32 | –
[6] | 1.76 | –
[7] | 3.01 | –
[8] | 10.6 | –
[9] | – | 39.8
[10] | – | 0.454
[11] | – | 11.2
[12] | – | 8.84
[13] | – | 21.2
[14] | – | 6.75
[15] | – | 6.5
[16] | – | 16.7

O=C(O)C(Cl)Br (centres undefined) [Bromochloroacetic acid]
concentration in plasma [µg/mL]
Conditions | 1 h | 3 h | 5 min
[17] | 15.1 | 1.06 | –
[19] | – | 6.83 | 8.6

Conditions | concentration in plasma [µg/mL]
[18] | 40.3

OCCC(F)(F)C(F)(F)C(F)(F)C(F)(F)C(F)(F)C(F)(F)C(F)(F)C(F)(F)F [Fluorotelomer alcohol 8+2]
Conditions | concentration in plasma [ng/mL]
[20], 3 h | 2390
[20], 5 min | 52.7
[21], 5 min | 13.6
[21], 9 h | 820
[23], 0.5 h | 641
[23], 9 h | 111
[24], 1 h | 585
[24], 24 h | 2.33

Conditions | concentration in plasma [ng/mL]
[22] | 5

NC=O [Formamide]
Conditions | concentration in plasma [µg/mL]
[25], 10 min | 323
[25], 20 h | 343
[26], 8 h | 365
[26], 12 h | 307
[27], 10 min | 44.6
[27], 18 h | 12.9
[28], 2 h | 155
[28], 96 h | 2.8
[29], 2 h | 197
[29], 5 min | 48.2
[30], 1.5 h | 727
[30], 30 h | 397
[31], 8 h | 86.7
[31], 12 h | 70.6

c1ccncc1 [Pyridine]
Conditions | concentration in plasma
[32], 2 h | 18 µg/mL
[32], 14 h | 10.5 µg/mL
[34], 2 h | 17.3 µg/mL
[34], 14 h | 10.3 µg/mL
[35], 3 h | 2830 ng/mL
[35], 10 h | 112 ng/mL
[37], 0.05 h | 3.87 µg/mL
[37], 4 h | 1.65 µg/mL

Conditions | concentration in plasma [µg/mL]
[33] | 0.451
[36] | 4.69
